The whole screen tested about 310,000 compounds, of which about 18,000 (5.8%) were called active. Inconclusive means that the source gave no clear call. Such entries were picked first, then a sample of the others. Calls follow the shape of the dose curve; as a rule, active = well fitted inhibition curve with a large enough effect; inconclusive = small, poorly fitted or top-dose-only effect, or another doubt; inactive = no such curve, though single readings can be large or run the other way. No potency is given beside an inconclusive call; the fits are too rough.
Assay: Primary qHTS for delayed death inhibitors of the malarial parasite plastid, 48 hour incubation
Conditions: P. falciparum luciferase growth in erythrocytes; series mostly up to 28.7 µM; activity change, negative = inhibition: at the top concentration
In short: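 Luminescence readout; reporter = integrated firefly luciferase in P. falciparum. RBC culture at 2% hematocrit, 0.1% parasitemia final, 37 C/5% CO2; decreased signal taken as growth inhibition.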
% is scaled to controls: 0 for no effect and ±100 for the full control effect; potency is read from the fitted curve at half-maximal effect; tags tell the direction and shape of the fitted curve.

| SMILES | Potency | activity change, negative = inhibition |
| --- | --- | --- |
| Nc1nc(NC2CCCCC2)nc(NCCO)c1[N+](=O)[O-] | inconclusive [inhibitor, single point] | – |
| Cc1ccccc1N(C)S(=O)(=O)c1ccc2[nH]cc(C(=O)NCC3CCCO3)c(=O)c2c1 (centres undefined) | inconclusive [inhibitor, single point] | – |
| CCOC(=O)N1CCN(S(=O)(=O)c2ccc(C)c([N+](=O)[O-])c2)CC1 | – | inactive: 7.05% |
| CCCNC(=O)c1nnsc1S(=O)c1ccc(Cl)cc1 (centres undefined) | inconclusive [inhibitor, single point] | – |
| COc1ccccc1C1CC(c2ccccc2)=NN1C(=S)Nc1ccccc1 (centres undefined) | active: 3.29 µM | – |
| COc1ccc(OCC(O)CN2CCC(CN3C(=O)c4cccc5cccc(c45)C3=O)CC2)cc1 (centres undefined) | active: 8.28 µM | – |
| O=C(CCCn1nnc2ccccc2c1=O)N[C@H](C(=O)O)c1ccccc1 | inconclusive [inhibitor, single point] | – |
| COC(=O)C1=C(C)N(Cc2ccccc2)C(=NCCc2c[nH]c3ccccc23)N[C@H]1c1ccccc1 | inconclusive [inhibitor, partial curve, poor fit] | – |
| Cc1cc(OCC(=O)NCC(O)c2ccccc2)c2c3c(c(=O)oc2c1)CCC3 (centres undefined) | inconclusive [inhibitor, single point] | – |
| N#CC(C#N)=C1C=CC=CN1/C(=C\c1ccco1)C(=O)c1ccc(Br)cc1 | inconclusive [inhibitor, single point] | – |
| O=C(Nc1ccc(N2CCOCC2)cc1)C1=NN(c2ccccc2)C(=O)CC1 | – | inactive: -11.6% |
| Cc1ccc(C)c(NC(=O)C2CCCN2C(=O)NC2CCCCC2)c1 (centres undefined) | – | inactive: -14.3% |
| COc1ccccc1C1c2[nH]c3ccccc3c2C[C@H]2C(=O)N(C3CCN(Cc4ccccc4)CC3)CC(=O)N12 (some centres undefined) | active: 1.85 µM | – |
| O=C(c1ccc(F)cc1)N1CCOCC1 | – | inactive: -0.8% |
| CC(C)CCNC(=O)c1ccc2c(c1)ncn2C1CCCCC1 | inconclusive [inhibitor, single point] | – |
| O=C(c1ccc(Br)o1)N1CCN(c2ccccc2F)CC1 | inconclusive [inhibitor, single point] | – |
| Cc1ccc(NC(=O)NCC2CCN(Cc3cccc(Cl)c3)CC2)cc1Cl | inconclusive [inhibitor, partial curve, poor fit] | – |
| CC1CC(C)CN(C(=O)CSc2nc(Cc3cccs3)nc3ccccc23)C1 (centres undefined) | inconclusive [inhibitor, single point] | – |
| COc1ccccc1NC(=O)CN(Cc1ccco1)C(=O)c1ccc(-n2nc(C)cc2C)cc1 | inconclusive [inhibitor, partial curve, poor fit] | – |
| O=C(CN(c1cccc(Cl)c1)S(=O)(=O)c1ccc(Cl)cc1)N1CCc2ccccc2C1 | active: 11.7 µM | – |
| COc1ccccc1-c1nc2n(n1)C(c1cccs1)C(C(=O)Nc1cccnc1)=C(C)N2 (centres undefined) | inconclusive [inhibitor, single point] | – |
| CCn1c(-c2ccc3ncccc3c2)n[nH]c1=S | – | inactive: 19.6% |

| SMILES | Potency | activity change, negative = inhibition |
| --- | --- | --- |
| Nc1cc[n+](CC(=O)c2ccccc2)cc1 | inconclusive [inhibitor, single point] | – |
| Cc1c2c(nc3ccccc13)OCC2 | – | inactive: 44.8% |
| CCN1C(=O)c2cccc3c(S(=O)(=O)NCc4ccccn4)ccc1c23 | inconclusive [inhibitor, single point] | – |
| CCC(C)Nc1nc(C)nc2c1oc1ccccc12 (centres undefined) | inconclusive [inhibitor, partial curve, poor fit] | – |
| COc1ccc(CN(C(=O)c2snc(C(N)=O)c2N)C(C(=O)NC2CCCC2)c2ccc(OC)c(OC)c2)cc1 (centres undefined) | inconclusive [inhibitor, partial curve] | – |
| CN1CCN(c2nc3c(c(=O)[nH]c(=O)n3C)n2CCOc2ccccc2)CC1 | – | inactive: 7.45% |
| CCOC(=O)c1c(C)[nH]c(C)c1C(=O)CN1C(=O)NC2(CCC(C)CC2)C1=O (centres undefined) | inconclusive [inhibitor, single point] | – |
| Cc1onc(-c2ccccc2Cl)c1C(=O)NC(=S)Nc1ccccc1F | active: 4.15 µM | – |
| CCN1C(=NCCc2ccccn2)N[C@@H](c2cccc(C(F)(F)F)c2)C(C(=O)OC)=C1C | inconclusive [inhibitor, single point] | – |
| CCOC(=O)c1cnn(C(=O)c2ccccc2)c1N | – | inactive: 24.1% |
| COc1ccccc1C(=O)Nc1cc2cc(Br)ccc2oc1=O | – | inactive: 54% |
| COc1ccc(OC)c(N/C(=N/C(=S)Nc2ccccc2)Nc2nc(C)cc(C)n2)c1 | inconclusive [inhibitor, full curve, poor fit] | – |
| O=C1CSC(=S)N1/N=C/c1ccc(O)c(O)c1O | inconclusive [inhibitor, full curve, poor fit] | – |
| N=c1c(S(=O)(=O)c2ccccc2)cc2c(=O)n3ccccc3nc2n1CCCN1CCOCC1 | inconclusive [inhibitor, partial curve, poor fit] | – |
| CCOc1ccc(Nc2cc(C)nc3c(C)cccc23)cc1 | inconclusive [inhibitor, single point] | – |
| Cc1cccc(CCNC(=O)C2CCCN(S(=O)(=O)c3cccc4nsnc34)C2)c1 (centres undefined) | inconclusive [inhibitor, single point] | – |
| CCc1ccc(-n2c(SCC(=O)N3Cc4ccccc4CC3C(=O)O)nnc2-c2ccncc2)cc1 (centres undefined) | – | inactive: -10.3% |
| COc1cccc(-c2nnn(CC(=O)N(CC(C)C)C3CCS(=O)(=O)C3)n2)c1 (centres undefined) | – | inactive: -1.52% |
| COCCCn1nnnc1SCC(=O)Nc1ccc2c(c1)OCCO2 | – | inactive: 32.7% |
| NC(=O)c1nsc(C(=O)N(Cc2ccco2)C(C(=O)NCc2ccc(F)cc2)c2ccc(O)cc2)c1N (centres undefined) | inconclusive [inhibitor, single point] | – |
| Cc1ccc(Nc2nc(CSc3nnc(-c4ccncc4)n3-c3ccccc3C)cs2)cc1 | inconclusive [inhibitor, partial curve, poor fit] | – |
| CCOC(=O)c1ccccc1NC(=O)c1nc2nccc(C)n2n1 | inconclusive [inhibitor, single point] | – |

From PubChem BioAssay AID504832 (National Center for Advancing Translational Sciences (NCATS), 2011)
